# In PubChem BioAssay AID720542 (National Center for Advancing Translational Sciences (NCATS), 2013):
# About 740 (0.21%) of roughly 360,000 compounds were called active. Inconclusive means that the source gave no clear call. Such entries were picked first, then a sample of the others. Calls come from the whole dose curve; as a rule, active = well fitted inhibition curve with a large enough effect; inconclusive = small, poorly fitted or top-dose-only effect; inactive = no such curve, though single readings can be large or run the other way. Potencies of inconclusive entries are left out as doubtful fits.
# Test system: Plasmodium falciparum AMA1 (3D7) - RON2 peptide interaction
# Assay: qHTS for Inhibitors of AMA1-RON; Towards Development of Antimalarial Drug Lead: Primary Screen; note: nearly all actives have a fitted effect of over 45% in size;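 for activity change, negative = inhibition: 0% = vehicle wells and -100% = peptide control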
# Conditions: AlphaScreen AMA1-biotinylated RON2 peptide binding; activity change, negative = inhibition: at 58.2 µM (top of the series) unless noted
# Method in brief: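 AMA1 (3D7) with his tag at 25 nM final met compounds first, then biotinylated RON2 peptide at 25 nM; detection used donor plus acceptor beads, 10 µg/mL apiece, read by AlphaScreen after 30 min at room temperature.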
# Potency is the fitted concentration of half-maximal effect; tags give direction and shape of the fitted curve.
SMILES,Potency,"activity change, negative = inhibition"
O=C(Nc1nnc(-c2ccco2)s1)C1CC1,"inconclusive [inhibitor, single point]",–
CC(=O)Nc1cccc(NC(=O)CSc2nnc(Cc3cccn3C)n2-c2ccc(C)cc2)c1,–,inactive: 31%
Cc1nn(-c2ccccc2)c(C)c1/C=N/N1CCN(c2ccccn2)CC1,–,inactive: -24.4%
CCCCN(C(=O)c1cc(-c2ccco2)nc2ccccc12)c1c(N)n(CCCC)c(=O)[nH]c1=O,–,inactive: -22.4%
CCN(CC)c1ccc(CNc2ccc3c(c2)ncn3CC)cc1,"inconclusive [inhibitor, partial curve]",–
CCOC(=O)c1ccccc1NC(=O)C1CSC2(C)CCC(=O)N12 (centres undefined),–,inactive: 2.72%
COc1ccc(N2C(=O)CC(N(CCc3ccc(S(N)(=O)=O)cc3)C(=S)Nc3ccccc3)C2=O)cc1 (centres undefined),"inconclusive [inhibitor, single point]",–
O=C(O)[C@H]1CCCC[C@H]1C(=O)Nc1ccc(S(=O)(=O)N2CCOCC2)cc1,–,inactive: 1.24%
CCOc1ccccc1NC(=O)C(CC)Sc1nc2ccncc2[nH]1 (centres undefined),"inconclusive [inhibitor, single point]",–
COc1ccc(NC(=O)N(C)[C@H]2C[C@H]3c4[nH]c5ccc(-c6ccc(OC)cc6)cc5c4CCN3C[C@H]2[C@H](C)O)cc1,"inconclusive [inhibitor, partial curve]",–
Cc1ccc2cc(NC(=O)c3ccccc3C)ccc2n1,–,inactive: -4.34%
CC(C)c1ccc(OCc2ccc(C(=O)N(C)C)o2)cc1,–,inactive: 15.9%
Cc1ccccc1-c1nn(-c2ccc(F)cc2F)cc1CNCCCN(C)C,"inconclusive [inhibitor, partial curve]",–
COc1ccc(S(=O)(=O)N(C)CC(=O)NCc2cccnc2)cc1,"inconclusive [inhibitor, single point]",–
Cc1c(/C=N/NC(=O)CNc2ccccc2)c2ccccn2c1C(=O)c1ccc(Cl)cc1,–,inactive: -11.7%
COc1ccccc1COCC(O)CN1CCN(S(=O)(=O)c2cccc(F)c2)CC1 (centres undefined),"inconclusive [inhibitor, single point]",–
CS(=O)(=O)c1ccccc1C(=O)Nc1cccc2ncccc12,"inconclusive [inhibitor, partial curve, poor fit]",–

SMILES,Potency,"activity change, negative = inhibition"
COc1ccc(C(=O)N2CCN(Cc3ccccc3[N+](=O)[O-])CC2)cc1,"inconclusive [inhibitor, partial curve]",–
O=C1/C(=C/c2ccco2)Cc2ccccc21,–,inactive: -29.7%
Fc1ccc(/C=N/N2CCN(Cc3ccccc3)CC2)cc1,"inconclusive [inhibitor, partial curve]",–
COc1cccc(CN2CCN(Cc3ccco3)CC2)c1,"inconclusive [inhibitor, partial curve]",–
Cc1cc(OCCCn2ccnc2)ccc1C(C)C,"inconclusive [inhibitor, partial curve, poor fit]",–
COc1ccc(OC)c(NC(=O)C2(C)CCN2C(=O)C2(c3ccc(Cl)cc3)CCC2)c1 (centres undefined),"inconclusive [inhibitor, partial curve]",–
CSc1ccc(CN2CCN(C(=O)COc3ccc(C)cc3)CC2)cc1,"inconclusive [inhibitor, partial curve]",–
CN(C(=O)c1cccc(NC(=O)Cc2ccc(NC(=O)C3CCN(C(=O)c4ccccc4)CC3)cc2)c1)C1CCCC1,–,inactive: -5.97%
CC1CCN(CC(=O)Nc2ccc(S(=O)(=O)NC3CC3)cc2)CC1,"inconclusive [inhibitor, partial curve]",–
COc1ccc(/C=N/c2c(-c3ccco3)nc3ccccn23)cc1OC,"inconclusive [inhibitor, single point]",–
O=c1c(OC2OC(CO)C(O)C(O)C2OC2OC(CO)C(O)C(O)C2O)c(-c2ccc(O)cc2)oc2cc(O)cc(O)c12 (centres undefined),"inconclusive [inhibitor, partial curve]",–
O=C(COC(=O)c1cccnc1Cl)Nc1ccc2c(c1)OCCO2,–,inactive: -0.685%
CCOC(=O)C(Nc1ccc2ccccc2c1)C(=O)OCC,"inconclusive [inhibitor, single point]",–
CCc1ccc(NC(=O)C(=O)N/N=C(\C)CC(=O)Nc2ccccn2)cc1,–,inactive: 104%
c1cc2c(cc1CN1CCN(C3CCCCCC3)CC1)OCO2,"inconclusive [inhibitor, single point]",–
N#Cc1ccc(OCC(=O)NCCCn2ccnc2)cc1,"inconclusive [inhibitor, single point]",–
O=C(Nc1ccc(N2CCN(C(=O)c3ccco3)CC2)cc1)C(c1ccccc1)c1ccccc1,"inconclusive [inhibitor, partial curve]",–
